Laboratory results from PubChem BioAssay AID596 (National Center for Advancing Translational Sciences (NCATS), 2007).
In all, about 71,000 compounds went through this assay and about 1,400 (2%) were called active. The shares of active, inactive and inconclusive entries below differ from those in the screen. Calls follow the shape of the dose curve; as a rule, active = well fitted curve in the direction sought with a large enough effect; inconclusive = small, poorly fitted or top-dose-only effect; inactive = no such curve, though single readings can be large or run the other way. Where the call is inconclusive, the potency comes from a doubtful curve fit.

Each compound was assayed against Microtubule-associated protein tau (Homo sapiens) (UniProt P10636) (assay: qHTS Assay for Tau Filament Binding). Details: recombinant tau filaments, thioflavin S fluorescence, 15 h, filaments grown with octadecylsulfate alongside compound; series mostly up to 57.1 µM.
Chain of UniProt P10636 (P10636 whole entry, looked up): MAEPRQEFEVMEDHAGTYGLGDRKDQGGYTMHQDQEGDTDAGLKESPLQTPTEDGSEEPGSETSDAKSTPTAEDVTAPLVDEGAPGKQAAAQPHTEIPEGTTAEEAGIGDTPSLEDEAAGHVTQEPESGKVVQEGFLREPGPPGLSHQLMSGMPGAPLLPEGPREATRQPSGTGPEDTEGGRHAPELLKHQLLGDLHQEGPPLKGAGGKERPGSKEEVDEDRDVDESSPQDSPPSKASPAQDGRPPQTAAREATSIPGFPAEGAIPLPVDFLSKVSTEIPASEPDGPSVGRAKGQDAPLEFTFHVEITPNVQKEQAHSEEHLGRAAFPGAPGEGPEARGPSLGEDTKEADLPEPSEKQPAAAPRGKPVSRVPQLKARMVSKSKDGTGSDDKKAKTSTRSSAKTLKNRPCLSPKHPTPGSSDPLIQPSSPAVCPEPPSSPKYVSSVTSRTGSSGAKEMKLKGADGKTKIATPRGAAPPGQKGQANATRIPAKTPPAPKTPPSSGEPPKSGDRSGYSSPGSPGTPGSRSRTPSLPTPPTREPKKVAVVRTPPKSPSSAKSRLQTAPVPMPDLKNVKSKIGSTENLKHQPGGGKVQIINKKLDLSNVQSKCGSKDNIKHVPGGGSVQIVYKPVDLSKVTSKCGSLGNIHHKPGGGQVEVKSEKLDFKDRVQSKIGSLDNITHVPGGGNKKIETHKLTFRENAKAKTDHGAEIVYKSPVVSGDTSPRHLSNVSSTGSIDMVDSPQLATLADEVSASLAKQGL
Procedure, shortened: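 Tau 2 uM in ThS buffer dispensed; compound added; 60 uM ODS added (finals 1 uM tau, 30 uM ODS); 15 h 37 C; fluor ex450/em510.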
% is scaled to controls: 0 for no effect and ±100 for the full control effect; potency is read from the fitted curve at half-maximal effect.
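Also: actives lower thioflavin S fluorescence by blocking filaments or displacing dye.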

Potency, inactive:
COc1ccc(C2C(C(=O)NCc3ccccn3)c3cc(OC)c(OC)cc3C(=O)N2C)cc1 (stereo not drawn)
CCOc1ccc2nc(NC(=O)C(CCSC)NS(=O)(=O)c3cccs3)sc2c1 (stereo not drawn)
CS(=O)(=O)Nc1cccc(-c2nc(N3CCOCC3)c3ccccc3n2)c1
CC(=O)N1[C@H](Cc2ccccc2)C=C[C@]1(C)C(=O)NCc1cc(F)cc(C(F)(F)F)c1
Cc1ccccc1-c1ccc2ncnc(N3CCOCC3)c2c1
CCC=O
COc1cccc(-n2nnc3c(=O)n(Cc4c(F)cccc4Cl)cnc32)c1
COCC(=O)Nc1cccc(Br)c1
Cc1ccc2c(c1)N(CC(=O)NCCN1CCOCC1)C(=O)CO2
Cc1n[nH]c(C)c1S(=O)(=O)N1CCCC(C(=O)NC2CCCCC2)C1 (stereo not drawn)
CCC(c1nnnn1Cc1ccc2c(c1)OCO2)N1CCN(c2ccc(OC)cc2)CC1 (stereo not drawn)
COC(=O)[C@@]1(Cc2ccc(F)cc2)[C@H]2c3cc(C(=O)N4CCCC4)n(Cc4cc(C)n(C)n4)c3C[C@H]2CN1C(=O)c1ccccc1
COCCn1c(=O)c(C)nc2cnc(N3CCN(C)CC3)nc21
COc1ccc(N2CCN(Cc3nc(N)nc(Nc4ccc(C)c(Cl)c4)n3)CC2)cc1
COc1ccccc1CN1CCC2(CCNCC2)CC1
Cc1ccc(OCC(=O)Nc2ccc(-c3nc4ncccc4o3)cc2)c(C)c1
CCOC(=O)c1[nH]cnc1C(=O)O
COC(=O)c1ccc(C(NC(=O)OCc2ccccc2)/C(=C/[C@@H](C)C(=O)NCc2cc(C)n(C)n2)c2cccnc2)cc1 (stereo partly drawn)
CCCc1ncc(C(=O)c2ccc(OC)cc2)n1C
CCN(CC)C[C@@H]1CCCCN1CC(=O)N1c2ccccc2C(=O)Nc2cccnc21
COCCn1nnnc1C(c1cccs1)N1CCN(c2nc3ccccc3s2)CC1 (stereo not drawn)

Potency, active:
COc1ccc(C(=O)N/N=C2/C(=O)c3c(C)cc(C)cc3CC2(C)C)cc1 5.01 µM
N#CC1=C(N)N=C(SCc2ccccc2)C(C(N)=O)C12CCCCC2 (stereo not drawn) 6.31 µM
Cc1nn(-c2ccccc2)c2nc(-c3ccncc3)cc(C(=O)NCc3ccco3)c12 31.6 µM
CCOc1nc(C#N)nc(N2CCCCC2)n1 12.6 µM
CC(C)(C)C(=O)/C=C(N)/C=C/c1ccccc1 25.1 µM
N=C1N=C(N)c2cc3ccccc3cc21 2.51 µM
Oc1ccccc1C1=Nc2nc3ccccc3n2C(c2ccccc2)C1 (stereo not drawn) 7.94 µM
Cc1nn(-c2ccccc2)c2c1C(c1cccnc1)N1C=C(S(=O)(=O)N3CCCCC3)C=CC1=N2 (stereo not drawn) 15.8 µM
Cc1ccc(Nc2nc(CSc3nnnn3C)cs2)cc1 15.8 µM
OCCN1CCN(C(c2cccs2)c2ccc3cccnc3c2O)CC1 (stereo not drawn) 6.31 µM
N#CCCN1CCN(C(=S)c2ccc(-c3cccc(Cl)c3)o2)CC1 3.98 µM
COC(=O)c1ccccc1NC(=O)CSc1nnnn1-c1ccc(C)cc1C 10 µM
COc1ccc(N2CCN(c3nc(=S)n(-c4ccccc4)c(C)c3C(C)=O)CC2)cc1 5.01 µM
O=C(CN1CCOc2ccccc21)NC1CCN(Cc2ccccc2)CC1 12.6 µM
Cn1c(=O)c(-c2cc(F)cc(F)c2)nc2cnc(Oc3cccc(Cl)c3)nc21 10 µM
Cc1cc(OCCCCCNCCO)cc(C)c1Cl 2.51 µM

Potency, inconclusive:
C[C@@H]1[C@H](O)[C@@H](C)/C=C/C=C/C=C/C=C/C=C/C=C/C=C/[C@H](O[C@@H]2O[C@H](C)[C@@H](O)[C@H](N)[C@@H]2O)C[C@@H]2O[C@](O)(C[C@@H](O)C[C@@H](O)[C@H](O)CC[C@@H](O)C[C@@H](O)CC(=O)O[C@H]1C)C[C@H](O)[C@H]2C(=O)O 0.631 µM [decreasing]
COC(=O)Cc1c(C)nc2nc(-c3ccccc3)[nH]n2c1=O 39.8 µM [decreasing]
O=c1c(-c2ccccc2)nc2cncnc2n1Cc1ccc(F)cc1 20 µM [decreasing]
O=S(=O)(c1cccc2cnccc12)N1CCNCC1 39.8 µM [decreasing]
COc1cc(N)c(Cl)cc1NC(=O)c1ccccc1 31.6 µM [decreasing]
Cc1ncc2c(c1O)COP(=O)(O)OC2 39.8 µM [decreasing]
O=c1cc(-c2ccc(O)c(O)c2)oc2cc(O)cc(O)c12 39.8 µM [decreasing]
CC(C)[C@@H](CC(=O)N[C@@H]1CCNC[C@H]1C(=O)N[C@H](CC(=O)N[C@@H](CCC(=O)O)CC(=O)O)Cc1c[nH]c2ccccc12)NC(=O)C[C@H](CO)NC(=O)[C@@H]1CNCC[C@H]1N 39.8 µM [decreasing]
N#C/C(=C(/O)COC(=O)Cc1c[nH]c2ccccc12)c1nc2ccccc2[nH]1 31.6 µM [decreasing]
O=[N+]([O-])c1ccc(NN=C2c3ccccc3Cc3ccccc32)c([N+](=O)[O-])c1 0.631 µM [decreasing]
c1ccc(C(c2ccccc2)N2CC[C@@]3(CCCNC3)C2)cc1 10 µM [decreasing]
COc1[nH]c2ccc(F)cc2c1C(=O)OCC1CCN(CCNS(C)(=O)=O)CC1 39.8 µM [decreasing]
Cc1noc(C)c1S(=O)(=O)N(CC(=O)O)c1ccc2c(c1)OCO2 39.8 µM [decreasing]
O=c1cnc2cnc(Oc3ccccc3)nc2n1Cc1ccc(F)cc1 31.6 µM [decreasing]
NC1(C(=O)O)CCC1 39.8 µM [decreasing]
O=C(c1cc(C(F)(F)F)cc(C(F)(F)F)c1)N1CCC2(CC1)CN(c1ccccc1)C2 10 µM [decreasing]
COc1ccc(N2CCN(CCNC(=O)CCS(=O)(=O)c3cccc4nsnc34)CC2)cc1 12.6 µM [decreasing]
COc1ccc(NC(=O)CSc2nnc(CNC(=O)c3ccco3)n2-c2ccccc2OC)cc1 10 µM [decreasing]
O=C(Nc1ccc(C(=O)Nc2ccc(C(=O)Nc3ccc(S(=O)(=O)O)c4cc(S(=O)(=O)O)cc(S(=O)(=O)O)c34)cc2)cc1)Nc1ccc(C(=O)Nc2ccc(C(=O)Nc3ccc(S(=O)(=O)O)c4cc(S(=O)(=O)O)cc(S(=O)(=O)O)c34)cc2)cc1 39.8 µM [decreasing]
Oc1cc2c(c(Cl)c1O)CCNC[C@H]2c1ccccc1 39.8 µM [decreasing]
c1cc2cn[nH]c2cc1NC1CCCCCC1 31.6 µM [decreasing]
COc1ccc(OC)c(C2C3=C(N=C4SCC(=O)N42)c2ccccc2CC3)c1 (stereo not drawn) 2.51 µM [decreasing]
C[C@@]12CC[C@@H]3c4ccc(O)cc4C[C@H](CCCCCCCCCS(=O)CCCC(F)(F)C(F)(F)F)[C@H]3[C@@H]1CC[C@@H]2O (stereo partly drawn) 39.8 µM [decreasing]
C=CCOc1ccc(C2c3c(oc4ccccc4c3=O)C(=O)N2CCCN2CCOCC2)cc1 (stereo not drawn) 39.8 µM [decreasing]
COc1ccc2oc(-c3ccccc3)c(OC)c(=O)c2c1 31.6 µM [decreasing]
C=CCSc1nnc2c(n1)[nH]c1c(C)cccc12 39.8 µM [decreasing]
C[Si](C)(C)C#Cc1ccccc1NC(=S)Nc1ccccc1 39.8 µM [decreasing]
O=c1c(O)c(-c2ccc(O)c(O)c2)oc2cc(O)ccc12 39.8 µM [decreasing]
COc1ccccc1CC(=N)N1C[C@@H]2C(=O)CCC(c3ccccc3)(c3ccccc3)[C@@H]2C1 39.8 µM [decreasing]
O=C(CCN(CCO)Cc1ccccc1)Nc1ccc(Br)cc1 12.6 µM [decreasing]
CCOC(=O)c1sc(=S)n(-c2ccc3c(c2)OCO3)c1N 25.1 µM [decreasing]
Cc1[nH]c(=O)c(C#N)cc1-c1ccncc1 39.8 µM [decreasing]
CC(C)=CCC/C(C)=C/COc1c2ccoc2cc2oc(=O)ccc12 39.8 µM [decreasing]
CCOC(=O)c1c(C)oc2c1c(C=NCC1CCCO1)c(O)c1ccccc12 (stereo not drawn) 0.316 µM [decreasing]
Cn1c(=O)c2[nH]cnc2n(C)c1=O 3.98 µM [decreasing]
NC[C@@]12CCCC1C1CCC2C1 (stereo partly drawn) 39.8 µM [decreasing]
C=CCN1CCN(c2nc3ccccc3nc2C#N)CC1 39.8 µM [decreasing]
CC(=O)NC(Cc1c[nH]c2ccccc12)C(=O)Nc1ccc2c(c1)OCO2 (stereo not drawn) 15.8 µM [decreasing]

Activity change, negative = inhibition, inactive:
NCCSC[C@H](N)C(=O)O 0.6% [at 11.4 µM]
C[C@H](CCC(=O)NN)[C@@H]1CC[C@@H]2[C@H]3CC[C@H]4C[C@@H](O)CC[C@@]4(C)[C@@H]3CC[C@]21C -2.7% [at 11.4 µM]
CC(=O)N[C@@H]1CONC1=O 4.2% [at 11.4 µM]
